Laboratory results taken from paper PMC5430835.
Like-named read-outs stand apart in the source and are kept apart here. Results are given in words; binding and its absence hold for the method and conditions named. For part of these data: In cells and extracts the contact can be indirect. Some entries that bind do so weakly or less than the wild type.

Amino acid sequences for entries named in this document (tags omitted).
UniProt Q13620: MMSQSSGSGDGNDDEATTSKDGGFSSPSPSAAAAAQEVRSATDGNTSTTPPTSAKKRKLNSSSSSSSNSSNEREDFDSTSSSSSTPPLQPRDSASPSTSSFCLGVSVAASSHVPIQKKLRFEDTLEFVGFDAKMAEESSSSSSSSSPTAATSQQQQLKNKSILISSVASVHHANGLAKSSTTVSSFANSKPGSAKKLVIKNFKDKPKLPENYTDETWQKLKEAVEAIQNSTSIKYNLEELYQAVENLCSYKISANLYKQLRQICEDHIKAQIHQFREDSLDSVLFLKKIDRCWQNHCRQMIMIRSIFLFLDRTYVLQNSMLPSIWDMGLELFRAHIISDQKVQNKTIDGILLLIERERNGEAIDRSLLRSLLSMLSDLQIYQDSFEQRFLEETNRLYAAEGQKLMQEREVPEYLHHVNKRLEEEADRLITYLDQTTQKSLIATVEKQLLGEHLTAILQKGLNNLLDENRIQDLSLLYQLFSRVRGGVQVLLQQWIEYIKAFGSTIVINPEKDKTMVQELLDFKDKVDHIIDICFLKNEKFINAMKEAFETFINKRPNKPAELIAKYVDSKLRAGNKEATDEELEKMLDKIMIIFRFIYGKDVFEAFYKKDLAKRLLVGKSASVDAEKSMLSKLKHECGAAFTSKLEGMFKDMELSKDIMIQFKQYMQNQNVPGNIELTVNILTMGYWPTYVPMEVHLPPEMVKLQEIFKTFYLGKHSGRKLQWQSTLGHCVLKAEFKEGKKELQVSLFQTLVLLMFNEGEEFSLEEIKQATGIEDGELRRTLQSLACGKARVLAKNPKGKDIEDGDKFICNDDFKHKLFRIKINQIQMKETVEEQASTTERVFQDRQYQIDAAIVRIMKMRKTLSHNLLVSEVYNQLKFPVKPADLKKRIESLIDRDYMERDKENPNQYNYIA
UniProt P38936: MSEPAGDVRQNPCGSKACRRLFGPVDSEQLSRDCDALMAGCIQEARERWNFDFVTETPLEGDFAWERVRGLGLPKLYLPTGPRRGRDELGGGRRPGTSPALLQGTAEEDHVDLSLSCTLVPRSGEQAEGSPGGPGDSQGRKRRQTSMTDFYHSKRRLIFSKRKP
UniProt Q66K64: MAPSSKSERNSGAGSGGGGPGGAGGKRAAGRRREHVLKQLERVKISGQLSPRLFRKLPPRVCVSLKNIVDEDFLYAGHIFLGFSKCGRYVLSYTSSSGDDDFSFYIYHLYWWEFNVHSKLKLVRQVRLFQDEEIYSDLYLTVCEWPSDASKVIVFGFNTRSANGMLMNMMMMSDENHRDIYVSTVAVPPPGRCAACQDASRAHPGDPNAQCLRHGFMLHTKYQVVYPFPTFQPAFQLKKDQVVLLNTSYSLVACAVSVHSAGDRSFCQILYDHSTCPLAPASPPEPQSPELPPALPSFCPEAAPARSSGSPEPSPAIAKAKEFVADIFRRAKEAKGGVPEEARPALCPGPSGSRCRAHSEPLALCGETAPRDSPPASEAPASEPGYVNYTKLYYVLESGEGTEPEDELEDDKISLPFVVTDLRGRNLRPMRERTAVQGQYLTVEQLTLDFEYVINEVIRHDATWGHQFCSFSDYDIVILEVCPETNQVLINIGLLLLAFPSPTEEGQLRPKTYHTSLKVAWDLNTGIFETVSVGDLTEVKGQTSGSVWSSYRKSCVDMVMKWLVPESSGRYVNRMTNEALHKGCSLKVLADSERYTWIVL
UniProt Q16531: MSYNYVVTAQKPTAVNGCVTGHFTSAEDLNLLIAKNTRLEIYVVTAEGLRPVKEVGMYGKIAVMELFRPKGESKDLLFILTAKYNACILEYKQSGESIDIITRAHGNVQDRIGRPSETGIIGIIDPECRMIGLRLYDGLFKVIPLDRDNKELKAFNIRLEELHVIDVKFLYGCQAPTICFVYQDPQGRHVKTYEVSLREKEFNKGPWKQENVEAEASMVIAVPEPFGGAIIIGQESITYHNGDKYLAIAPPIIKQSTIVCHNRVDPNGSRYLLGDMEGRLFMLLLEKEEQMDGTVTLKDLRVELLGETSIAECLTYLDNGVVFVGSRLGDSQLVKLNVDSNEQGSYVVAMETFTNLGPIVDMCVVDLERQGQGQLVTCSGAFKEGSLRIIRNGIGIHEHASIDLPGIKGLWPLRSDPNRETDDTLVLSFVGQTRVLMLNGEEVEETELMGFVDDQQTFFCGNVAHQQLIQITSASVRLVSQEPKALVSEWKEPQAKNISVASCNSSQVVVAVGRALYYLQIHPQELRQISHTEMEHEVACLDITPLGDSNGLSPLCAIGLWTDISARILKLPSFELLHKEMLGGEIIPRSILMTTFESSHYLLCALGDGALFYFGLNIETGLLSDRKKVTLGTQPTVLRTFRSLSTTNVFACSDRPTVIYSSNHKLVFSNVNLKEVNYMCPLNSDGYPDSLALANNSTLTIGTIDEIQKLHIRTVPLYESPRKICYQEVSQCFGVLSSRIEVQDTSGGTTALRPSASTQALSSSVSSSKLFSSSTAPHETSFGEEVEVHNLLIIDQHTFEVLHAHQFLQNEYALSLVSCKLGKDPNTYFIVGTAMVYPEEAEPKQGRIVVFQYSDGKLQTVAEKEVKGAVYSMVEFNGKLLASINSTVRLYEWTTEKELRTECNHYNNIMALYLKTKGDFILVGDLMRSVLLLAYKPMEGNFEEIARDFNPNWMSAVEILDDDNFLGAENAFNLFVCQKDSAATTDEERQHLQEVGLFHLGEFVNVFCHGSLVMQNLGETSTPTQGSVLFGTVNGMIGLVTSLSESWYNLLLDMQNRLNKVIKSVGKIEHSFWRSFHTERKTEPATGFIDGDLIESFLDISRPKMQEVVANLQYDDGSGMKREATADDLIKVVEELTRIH

Tests used:
[1] = biological target: Flag-tagged CUL4B (Cullin 4B) (human) (UniProt Q13620); experiment: co-IP; pCDNA3-CUL4B-Flag transfected into hFOB1.19, U2OS or Saos-2 cells, 48 h; anti-Flag agarose; immunoblot for endogenous partners
[2] = biological target: CUL4B in pGBKT7 (yeast two-hybrid bait) (human) (UniProt Q13620); experiment: two-hybrid; yeast AH109; pGBKT7 bait and pGADT7 prey; growth on medium lacking Trp, Leu and His
[3] = biological target: Flag-tagged CUL4B (Cullin 4B) (human) (UniProt Q13620); experiment: co-IP; pCDNA3-CUL4B-Flag transfected into hFOB1.19, U2OS or Saos-2 cells, 48 h; anti-Flag agarose; immunoblot for endogenous partners; remark: listed apart in the source
Flag-tagged p21 = Flag-tagged p21 (UniProt P38936); experiment: co-IP; pCDNA3-p21-Flag transfected into hFOB1.19, U2OS or Saos-2 cells, 48 h; anti-Flag agarose; immunoblot for endogenous DCAFs
[4] = biological target: p21 in pGBKT7 (yeast two-hybrid bait) (UniProt P38936); experiment: two-hybrid; yeast AH109; pGBKT7 bait and pGADT7 prey; growth on medium lacking Trp, Leu and His

In the case of DCAF15 (from UniProt Q66K64 1-600), the binding [1] is reported as “no binding”.

“DDB1 (DNA damage binding protein 1) (from UniProt Q16531 1-1140)” was tested, and the binding [1] was “binds”.

“DDB1 in pGADT7 (yeast two-hybrid prey) (from UniProt Q16531 1-1140)” was tested, and the binding [2] was “binds”.

B1: DCAF4 (protein, UniProt Q8WV16 1-495)
chain: MNKSRWQSRRRHGRRSHQQNPWFRLRDSEDRSDSRAAQPAHDSGHGDDESPSTSSGTAGTSSVPELPGFYFDPEKKRYFRLLPGHNNCNPLTKESIRQKEMESKRLRLLQEEDRRKKIARMGFNASSMLRKSQLGFLNVTNYCHLAHELRLSCMERKKVQIRSMDPSALASDRFNLILADTNSDRLFTVNDVKVGGSKYGIINLQSLKTPTLKVFMHENLYFTNRKVNSVCWASLNHLDSHILLCLMGLAETPGCATLLPASLFVNSHPGIDRPGMLCSFRIPGAWSCAWSLNIQANNCFSTGLSRRVLLTNVVTGHRQSFGTNSDVLAQQFALMAPLLFNGCRSGEIFAIDLRCGNQGKGWKATRLFHDSAVTSVRILQDEQYLMASDMAGKIKLWDLRTTKCVRQYEGHVNEYAYLPLHVHEEEGILVAVGQDCYTRIWSLHDARLLRTIPSPYPASKADIPSVAFSSRLGGSRGAPGLLMAVGQDLYCYSYS
For B1, the binding [3] was “binds” and the binding (Flag-tagged p21) was “no binding”.

B2: DCAF4 in pGADT7 (yeast two-hybrid prey) (protein, UniProt Q8WV16 1-495)
chain: MNKSRWQSRRRHGRRSHQQNPWFRLRDSEDRSDSRAAQPAHDSGHGDDESPSTSSGTAGTSSVPELPGFYFDPEKKRYFRLLPGHNNCNPLTKESIRQKEMESKRLRLLQEEDRRKKIARMGFNASSMLRKSQLGFLNVTNYCHLAHELRLSCMERKKVQIRSMDPSALASDRFNLILADTNSDRLFTVNDVKVGGSKYGIINLQSLKTPTLKVFMHENLYFTNRKVNSVCWASLNHLDSHILLCLMGLAETPGCATLLPASLFVNSHPGIDRPGMLCSFRIPGAWSCAWSLNIQANNCFSTGLSRRVLLTNVVTGHRQSFGTNSDVLAQQFALMAPLLFNGCRSGEIFAIDLRCGNQGKGWKATRLFHDSAVTSVRILQDEQYLMASDMAGKIKLWDLRTTKCVRQYEGHVNEYAYLPLHVHEEEGILVAVGQDCYTRIWSLHDARLLRTIPSPYPASKADIPSVAFSSRLGGSRGAPGLLMAVGQDLYCYSYS
For B2, the binding [4] was “no binding”.
